Results from a compilation of properties of binary mixtures (doi:10.1021/je900865y).
Some of these densities may be calculated back from excess volumes.

Test: xn = mol fraction of the nth substance listed
Settings: 101 kPa

CCCC[n+]1ccn(C)c1.N[C@@H](CCC(=O)O)C(=O)[O-] + O
mass density [kg/m3]
Settings | x2 = 0.0032 | x2 = 0.0156 | x2 = 0.0367 | x2 = 0.0541 | x2 = 0.1107 | x2 = 0.1439 | x2 = 0.1451 | x2 = 0.1613 | x2 = 0.1759
308.15 K | – | – | – | – | 1183.8 | 1181.1 | 1180.8 | 1179.2 | 1177.9
313.15 K | – | – | – | – | 1181.2 | 1178.6 | 1178.2 | – | 1175.6
318.15 K | 1186.2 | 1185.3 | 1183.8 | 1182.3 | 1178.2 | 1175.5 | 1175.1 | – | 1172.6
323.15 K | 1184.1 | 1183.2 | 1181.6 | 1180.2 | 1176.3 | 1174 | 1173.5 | 1172.3 | 1171.2
328.15 K | 1181.9 | 1181 | 1179.5 | 1178.4 | 1174.8 | 1172.1 | 1171.9 | – | 1169.8
333.15 K | 1179.4 | 1178.4 | 1177.3 | 1176 | 1172.3 | 1170.2 | 1170 | 1169.1 | 1167.4
338.15 K | 1177 | 1176.1 | 1175 | 1173.9 | 1170.8 | 1168.4 | – | 1167.1 | 1166
343.15 K | – | – | 1173.3 | 1172.6 | 1169.5 | – | 1166.9 | – | 1165
